Positions count from the first letter of the chain named. This is one part of the list.
T1: RBFOX1 RRM (Homo sapiens, UniProt Q9NWB1 109-208)
T1 sequence: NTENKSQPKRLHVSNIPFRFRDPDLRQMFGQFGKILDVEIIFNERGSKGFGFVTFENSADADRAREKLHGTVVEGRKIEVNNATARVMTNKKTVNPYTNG

B1: ACUACUA (DNA:RNA)
RNA: GGGAGACCGGAAUUCAGAUUGUCCACUACUAUUAAAUCCCGUCGUAGCCACCA
DNA 1: CAATCTGAATTCCGGTCTCCC
DNA 2: TGGTGGCTACGACGGGATT
B2: CAAAAGA (DNA:RNA)
RNA: B1 RNA with A25C, C26A, U27A, C29A, U30G
DNA 1: CAATCTGAATTCCGGTCTCCC
DNA 2: TGGTGGCTACGACGGGATT
B3: CUUCUUC (DNA:RNA)
RNA: B1 RNA with A25C, C26U, A28C, C29U, A31C
DNA 1: CAATCTGAATTCCGGTCTCCC
DNA 2: TGGTGGCTACGACGGGATT
B4: GUGCCGC (DNA:RNA)
RNA: B1 RNA with A25G, C26U, U27G, A28C, U30G, A31C
DNA 1: CAATCTGAATTCCGGTCTCCC
DNA 2: TGGTGGCTACGACGGGATT
B5: CUGCAGA (DNA:RNA)
RNA: B1 RNA with A25C, C26U, U27G, A28C, C29A, U30G
DNA 1: CAATCTGAATTCCGGTCTCCC
DNA 2: TGGTGGCTACGACGGGATT
B6: CGCGGAG (DNA:RNA)
RNA: GGGAGACCGGAAUUCAGAUUGUCCCGCGGAGUUAAAUCCCGUCGUAGCCACCA
DNA 1: CAATCTGAATTCCGGTCTCCC
DNA 2: TGGTGGCTACGACGGGATT
B7: GUCGCAC (DNA:RNA)
RNA: B6 RNA with C25G, G26U, G29C, G31C
DNA 1: CAATCTGAATTCCGGTCTCCC
DNA 2: TGGTGGCTACGACGGGATT
B8: GCCAUUG (DNA:RNA)
RNA: B1 RNA with A25G, U27C, C29U, A31G
DNA 1: CAATCTGAATTCCGGTCTCCC
DNA 2: TGGTGGCTACGACGGGATT
B9: AACCCUU (DNA:RNA)
RNA: B1 RNA with C26A, U27C, A28C, A31U
DNA 1: CAATCTGAATTCCGGTCTCCC
DNA 2: TGGTGGCTACGACGGGATT
B10: GAUGCUC (DNA:RNA)
RNA: B1 RNA with A25G, C26A, A28G, A31C
DNA 1: CAATCTGAATTCCGGTCTCCC
DNA 2: TGGTGGCTACGACGGGATT
B11: CAAAGUA (DNA:RNA)
RNA: B1 RNA with A25C, C26A, U27A, C29G
DNA 1: CAATCTGAATTCCGGTCTCCC
DNA 2: TGGTGGCTACGACGGGATT
B12: GUGGCCG (DNA:RNA)
RNA: B6 RNA with C25G, G26U, C27G, G29C, A30C
DNA 1: CAATCTGAATTCCGGTCTCCC
DNA 2: TGGTGGCTACGACGGGATT
B13: GUGCUUG (DNA:RNA)
RNA: B1 RNA with A25G, C26U, U27G, A28C, C29U, A31G
DNA 1: CAATCTGAATTCCGGTCTCCC
DNA 2: TGGTGGCTACGACGGGATT
B14: CGAAUAA (DNA:RNA)
RNA: B6 RNA with C27A, G28A, G29U, G31A
DNA 1: CAATCTGAATTCCGGTCTCCC
DNA 2: TGGTGGCTACGACGGGATT
B15: GGAGCAG (DNA:RNA)
RNA: B6 RNA with C25G, C27A, G29C
DNA 1: CAATCTGAATTCCGGTCTCCC
DNA 2: TGGTGGCTACGACGGGATT
B16: GUAGGUG (DNA:RNA)
RNA: B6 RNA with C25G, G26U, C27A, A30U
DNA 1: CAATCTGAATTCCGGTCTCCC
DNA 2: TGGTGGCTACGACGGGATT
B17: AUGUGGG (DNA:RNA)
RNA: B6 RNA with C25A, G26U, C27G, G28U, A30G
DNA 1: CAATCTGAATTCCGGTCTCCC
DNA 2: TGGTGGCTACGACGGGATT
B18: UGAUAUG (DNA:RNA)
RNA: B6 RNA with C25U, C27A, G28U, G29A, A30U
DNA 1: CAATCTGAATTCCGGTCTCCC
DNA 2: TGGTGGCTACGACGGGATT
B19: ACUGCGU (DNA:RNA)
RNA: B1 RNA with A28G, U30G, A31U
DNA 1: CAATCTGAATTCCGGTCTCCC
DNA 2: TGGTGGCTACGACGGGATT
B20: CCAUUCG (DNA:RNA)
RNA: B6 RNA with G26C, C27A, G28U, G29U, A30C
DNA 1: CAATCTGAATTCCGGTCTCCC
DNA 2: TGGTGGCTACGACGGGATT

Target: T1, RBFOX1 RRM
Experiment: EMSA; HiTS-Eq, 1 nM pool, 10 min; buffer printed only for the single-RNA assays: 10 mM Tris pH 7.5, 150 mM NaCl, 3.4 mM EDTA, 0.001% NP-40, 30 C
Details: tags: His6 N-terminal (pET28a); label: 5' 32P
Procedure, shortened: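 Purified RbFox RRM, wild type or mutant, was incubated for 10 min in 50 µL with 1 nM of a 5′-radiolabelled RNA pool carrying 7 randomized nucleotides, whose flanks were annealed to DNA oligonucleotides, over a series of increasing protein concentrations. Unbound RNA was resolved on 8% native PAGE, cut out, reverse-transcribed, barcoded by PCR and sequenced on an Illumina HiSeq 2500. Relative association constants were derived from changes in read counts for each RNA species versus the control reaction and normalised to the cognate motif.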

| Binder | binding signal |
| --- | --- |
| B1 | 0.00246 KA relative to UGCAUGU |
| B2 | 0.00211 KA relative to UGCAUGU |
| B3 | 0.00922 KA relative to UGCAUGU |
| B4 | 0.0163 KA relative to UGCAUGU |
| B5 | 0.0168 KA relative to UGCAUGU |
| B6 | 0.017 KA relative to UGCAUGU |
| B7 | 0.0117 KA relative to UGCAUGU |
| B8 | 0.0121 KA relative to UGCAUGU |
| B9 | 0.000621 KA relative to UGCAUGU |
| B10 | 0.0194 KA relative to UGCAUGU |
| B11 | 0.00198 KA relative to UGCAUGU |
| B12 | 0.0209 KA relative to UGCAUGU |
| B13 | 0.053 KA relative to UGCAUGU |
| B14 | 0.00311 KA relative to UGCAUGU |
| B15 | 0.0164 KA relative to UGCAUGU |
| B16 | 0.0139 KA relative to UGCAUGU |
| B17 | 0.00956 KA relative to UGCAUGU |
| B18 | 0.0174 KA relative to UGCAUGU |
| B19 | 0.0105 KA relative to UGCAUGU |
| B20 | 0.00798 KA relative to UGCAUGU |
